The campaign covered roughly 310,000 compounds. About 14,000 (4.5%) showed an effect of 50% or more. Effects have a minus sign here. The list shows a part of the results.
The molecules below were run against human ether-à-go-go-related gene (hERG) potassium channel (human, UniProt Q12809) (assay: primary screen, population patch clamp on CHO cells stably expressing hERG).
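Also: peak tail current of the secondary pulse compared with the same well before compound.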

Sequence of human ether-à-go-go-related gene (hERG) potassium channel (Q12809 whole entry, looked up): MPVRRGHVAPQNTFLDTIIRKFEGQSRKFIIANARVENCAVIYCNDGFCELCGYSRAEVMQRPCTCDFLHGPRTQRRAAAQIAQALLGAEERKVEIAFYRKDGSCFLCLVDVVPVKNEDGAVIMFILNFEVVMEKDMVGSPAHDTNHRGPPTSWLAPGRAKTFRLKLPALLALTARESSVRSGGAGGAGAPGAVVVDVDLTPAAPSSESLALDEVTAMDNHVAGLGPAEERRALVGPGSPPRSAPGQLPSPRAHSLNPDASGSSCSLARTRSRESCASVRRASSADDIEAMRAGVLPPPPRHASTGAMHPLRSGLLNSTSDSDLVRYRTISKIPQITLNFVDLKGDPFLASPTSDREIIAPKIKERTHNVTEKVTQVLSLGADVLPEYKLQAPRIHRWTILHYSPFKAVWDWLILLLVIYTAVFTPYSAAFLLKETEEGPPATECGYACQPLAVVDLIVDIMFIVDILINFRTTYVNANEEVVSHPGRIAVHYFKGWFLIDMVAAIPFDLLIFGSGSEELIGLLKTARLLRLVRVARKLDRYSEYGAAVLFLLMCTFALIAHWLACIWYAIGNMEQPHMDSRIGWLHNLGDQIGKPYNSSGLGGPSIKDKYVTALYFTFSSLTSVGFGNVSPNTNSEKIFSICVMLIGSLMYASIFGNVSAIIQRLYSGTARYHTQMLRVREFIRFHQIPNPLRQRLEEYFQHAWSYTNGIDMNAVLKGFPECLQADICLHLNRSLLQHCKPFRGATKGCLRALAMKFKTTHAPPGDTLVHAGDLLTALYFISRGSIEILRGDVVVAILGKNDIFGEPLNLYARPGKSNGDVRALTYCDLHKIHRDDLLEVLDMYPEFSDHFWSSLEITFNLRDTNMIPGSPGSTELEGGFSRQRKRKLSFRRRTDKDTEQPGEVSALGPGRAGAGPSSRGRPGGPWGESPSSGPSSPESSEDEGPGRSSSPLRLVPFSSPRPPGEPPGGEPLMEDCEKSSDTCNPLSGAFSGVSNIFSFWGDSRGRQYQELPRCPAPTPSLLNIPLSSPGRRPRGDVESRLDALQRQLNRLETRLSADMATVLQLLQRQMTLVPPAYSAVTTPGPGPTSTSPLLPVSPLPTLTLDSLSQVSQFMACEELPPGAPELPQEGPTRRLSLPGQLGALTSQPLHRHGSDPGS

SMILES | hERG current change (%, negative = inhibition) at 10uM [%]
Cc1sc(N(C(=O)CCc2ccccc2)c2ccc(C(=O)O)cc2)nc1-c1ccccc1 | 17.3
O=C(CN1C(=O)CCS(=O)(=O)c2ccccc21)Nc1ccc(Cl)cc1 | -1.64
Cc1ccc(OC(C)C(=O)Nc2ccc(F)cc2)c([N+](=O)[O-])n1 (stereo not drawn) | -19.8
COC(=O)[C@@H]1[C@@H](C(=O)OC)C2(c3ccccc3-c3ccccc32)N(c2ccc(Cl)cc2)N1C#N | -5.5
Cc1c(NC(=O)C(C)N2C(=O)C3C4C=CC(C4)C3C2=O)c(=O)n(-c2ccccc2)n1C (stereo not drawn) | 14.7
COc1cc(C=O)ccc1OCCOCCOc1ccc(Cl)cc1Cl | -11.1
CCOC(=O)Cc1csc(NC(NC(=O)OCC)(C(F)(F)F)C(F)(F)F)n1 | 2.83
COc1ccccc1CC1C(=O)C2CCN1CC2 (stereo not drawn) | 14.5
Cc1c(Cl)cccc1NC(=O)C1NC(=O)CC1c1ccccc1 (stereo not drawn) | 8.73
COC(=O)C1CCN(C(=O)c2cc3ccccc3oc2=O)CC1 | -7.44
Cc1ccsc1C(=O)NC(C)c1ccccc1 (stereo not drawn) | 17.6
O=C(CCSCc1cccc(F)c1)NCCc1ccccc1 | 2.11
O=C(CSc1nnc(CNC(=O)c2ccco2)o1)Nc1cccc(F)c1 | 6.05
CC(=O)c1cccc(NC(=O)CCn2c(=S)oc3ccccc32)c1 | 9.8
Cc1cc(F)c(F)c(C(=O)N2CCOCC2)c1Cl | 28.8
COCCCNC(=O)c1ccc(CSCc2ccc(C)cc2)o1 | -12.5
CS(=O)(=O)N(CC(=O)NCCSCc1ccco1)c1ccc2c(c1)OCO2 | 2.88
COC(=O)c1sccc1NC(=O)CSc1ccc(Cl)cc1 | 4.19
Cc1cccc(C(=O)N2CCN(Cc3ccc4c(c3)OCO4)CC2)c1 | -14.1
COc1ccc(NS(=O)(=O)c2cccc(C(=O)NCC(c3ccc(OC)cc3)N3CCOCC3)c2)cc1 (stereo not drawn) | -26.1
Cc1ccc(CNC(=O)C(=O)NCC2CCCN2S(=O)(=O)c2cc(C)ccc2C)cc1 (stereo not drawn) | -18.4
O=C(CSc1nncc2ccccc12)Nc1cccc(C(=O)O)c1 | 15.5
Cc1cc(C(=O)Nc2c(F)cc(F)cc2Br)n(-c2ccccc2)n1 | 16
O=S1(=O)[C@H]2C[C@@H]3C=C[C@@]2(CN1Cc1cccc(Cl)c1)O3 | -2.05
COc1ccc(S(=O)(=O)N2CCCCCC2)cc1C(=O)N(C)Cc1ccc(F)cc1 | -38.1
COC(=O)CN1C(=O)[C@H]2[C@@H](c3ccc(C)o3)N3C(=O)CN(Cc4ccccn4)C(=O)[C@@]3(C)[C@H]2C1=O | 0.901
Cc1ccc(CNC(=O)CN(C(=O)C2(C)CC(=O)N=C3C=CC=CN32)c2ccccc2F)cc1 (stereo not drawn) | 14.5

SMILES | hERG current change (%, negative = inhibition) at 10uM [%]
CCc1ccc(OCC(=O)OCC(=O)c2ccc3c(c2)NC(=O)CO3)cc1 | 12
Cc1nn2c(NCCCn3ccnc3)cc(C(C)C)nc2c1-c1ccccc1 | -23.5
Cn1c(SCC(=O)c2cccs2)nnc1-c1ccco1 | 11.8
CNc1c(NC(=O)C2CCC(C)CC2)c(=O)oc2ccccc12 (stereo not drawn) | 0.302
CCc1ccc(-c2cc(C)no2)cc1S(=O)(=O)Nc1ccccn1 | 23
N#C/C(=N/Nc1ccccc1[N+](=O)[O-])C(N)=S | 9.51
Cc1cccc(C)c1NC(=O)Nc1ccccc1-n1ccnc1 | -5.16
O=S(=O)(/N=C(/Nc1ccccc1)c1ccccc1)c1cccs1 | 12.1
Cc1ccc(-c2nn3c(C)nnc3s2)cc1NC(=O)c1ccc(-c2ccc(Cl)cc2Cl)o1 | -11
CCOc1ccccc1NC(=O)c1ccc2ccccc2c1 | -1.85
CNC(=S)N1CC2CC(C1)c1cccc(=O)n1C2 (stereo not drawn) | 20.6
O=C(Nc1ccc(S(=O)(=O)NCc2ccco2)cc1)c1cccc(F)c1 | -5.94
O=C(CN1C(=O)c2ccccc2C1=O)Nc1ccccc1C(=O)N1CCCC1 | 2.46
CCOc1cccc2sc(N(CCCN(C)C)C(=O)Cc3ccccc3)nc12.Cl | -80.2
COCCn1c(=O)[nH]c2cc(C(=O)N3CCN(c4cccc(Cl)c4)CC3)ccc2c1=O | -6.04
COc1ccc(CNC(=O)[C@H](C)NC(=O)C2CCN(S(=O)(=O)c3ccc(F)cc3)CC2)cc1 | 14.8
CCCC1S/C(=N/N=C/c2ccc(OC)cc2)N(Cc2ccccc2)C1=O (stereo not drawn) | 3.46
CCN(CC)CCC(c1cc(OC)c(OC)c(OC)c1)c1c(OC)cc(OC)c2ccc(=O)oc12 (stereo not drawn) | -41.2
CCCc1c(C(=O)N/N=C/c2cccnc2)nnn1-c1nonc1N | 12.6
CCOc1ccc(C2CC(c3ccc(CC)cc3)n3nc(N)nc3N2)cc1 (stereo not drawn) | 1.14
Cc1cn(-c2cc(C(=O)Nc3ccc(C)c(NC(=O)C(=O)c4c[nH]c5ccccc45)c3)cc(C(F)(F)F)c2)cn1 | 1.92
COc1ccc(C2=NN(C(=O)c3ccccc3)C(c3cccc([N+](=O)[O-])c3)C2)cc1 (stereo not drawn) | -13
O=C(NCCn1cccc1)c1cccc2ccccc12 | -0.492
COc1ccc(C(CNC(=O)COc2ccc(Cl)c(C)c2)N2CCCCC2)cc1 (stereo not drawn) | -44.6
CN(CCC(=O)Nc1ccc2c(c1)OCO2)Cc1ccccc1.Cl | 7.32
COc1ccc(-c2cn3c(C)c(C(=O)N4CCCc5ccccc54)sc3n2)cc1 | -16
COC(=O)C1(C)NC(c2cccs2)C2C(=O)N(c3ccccc3F)C(=O)C21 (stereo not drawn) | 0.956

— article PMC4336329 (PLoS ONE, 2015)
